The values that follow come from the supplement of paper PMC3334620.

Whole data set: some 33,000 sequences, median “E-score (-0.5 to 0.5)” near -0.012, cut for the highest 2% near 0.27. The list shows a part of the results.

The test concerns the target T1, Vhr1 (UniProt P40522).
T1 sequence: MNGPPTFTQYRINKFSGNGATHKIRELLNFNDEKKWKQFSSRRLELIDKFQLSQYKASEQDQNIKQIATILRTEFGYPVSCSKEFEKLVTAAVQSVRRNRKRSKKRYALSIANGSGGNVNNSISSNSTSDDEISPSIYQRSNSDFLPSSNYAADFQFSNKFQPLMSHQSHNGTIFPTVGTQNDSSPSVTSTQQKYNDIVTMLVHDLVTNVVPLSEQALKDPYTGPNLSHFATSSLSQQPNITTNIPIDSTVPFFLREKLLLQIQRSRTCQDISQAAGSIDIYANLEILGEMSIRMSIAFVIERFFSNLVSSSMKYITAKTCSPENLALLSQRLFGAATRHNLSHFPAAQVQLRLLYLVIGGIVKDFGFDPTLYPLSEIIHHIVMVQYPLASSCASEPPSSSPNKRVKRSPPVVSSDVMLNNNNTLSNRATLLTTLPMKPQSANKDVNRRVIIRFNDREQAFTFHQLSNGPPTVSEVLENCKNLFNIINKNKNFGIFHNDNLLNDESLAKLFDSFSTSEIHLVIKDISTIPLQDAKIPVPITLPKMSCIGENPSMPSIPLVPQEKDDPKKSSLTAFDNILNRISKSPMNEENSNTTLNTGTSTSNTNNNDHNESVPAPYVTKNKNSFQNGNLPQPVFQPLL
The experiment in a line: PBM E-score (8-mer binding enrichment) (E-score (-0.5 to 0.5)); higher = stronger / more preferred TF binding; most listed sequences are background and not binding sites. The note with it: protein concentration: 200 nM; construct: GST-full length. The procedure, abridged:
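Each ungapped eight-base word and its reverse complement, pooled, received an E-score from the Universal PBM Analysis Suite. Underlying scans, normalised with masliner, recorded fluorescent anti-GST bound to GST-tagged yeast transcription factors. These were applied at about 100-200 nM to universal all-10-mer Agilent arrays double-stranded by primer extension.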
For the sequence TCTTTCCA, the “PBM E-score” value was -0.157.

In the case of CCAGCCCG, the “PBM E-score” value is 0.0415.

For the sequence AATCGGCA, the “PBM E-score” value came out at 0.056.

Consider CAAAAGAG, for which the “PBM E-score” value is -0.00151.

GGCAGTGA: the “PBM E-score” value is 0.0755.

As to AAAAGTTA, the “PBM E-score” value is -0.0918.

Take ACTTTCGA: the “PBM E-score” value was -0.213.

GCGTACGC: the “PBM E-score” value was -0.197.

For GGGCAGAC, the “PBM E-score” value was -0.141.

Regarding CACCGGCC, the “PBM E-score” value was -0.0357.

CTCACTGA: the “PBM E-score” value was found to be 0.14.

Take AAGATCGG: the “PBM E-score” value was -0.104.

On to GCGGTAAC, for which the “PBM E-score” value is 0.00972.

Turning to AAAACGTG, the “PBM E-score” value was -0.22.

On to GCCGCGCA, for which the “PBM E-score” value was -0.0881.

Regarding ACTCAGGA, the “PBM E-score” value turned out to be 0.268.

With CCTATGGC, the “PBM E-score” value was -0.135.

AAACGGTC: the “PBM E-score” value is -0.118.

As for AGAATGGG, the “PBM E-score” value is -0.0379.

Regarding GGCCGAAA, the “PBM E-score” value is 0.157.

For the sequence CTCCTTGC, the “PBM E-score” value was -0.142.

Regarding AACGAAGA, the “PBM E-score” value is -0.0778.

Turning to CCCTTAGC, the “PBM E-score” value is -0.148.

CGTTAAAC: the “PBM E-score” value was -0.136.

Turning to CACTAAAA, the “PBM E-score” value was -0.0448.

On to TATGATCA, for which the “PBM E-score” value stood at 0.152.

Regarding AGAGGTAA, the “PBM E-score” value is -0.102.

With GATCCGAA, the “PBM E-score” value came out at 0.104.

As to ATGGAACA, the “PBM E-score” value was -0.0846.

AGGGAAAC: the “PBM E-score” value is -0.222.

As for GGCCGCAC, the “PBM E-score” value is -0.00891.

GATGTAAA: the “PBM E-score” value is -0.0985.

Regarding TCGTAACA, the “PBM E-score” value is 0.101.

As to AATCCCGT, the “PBM E-score” value came to 0.166.

As to GGAAAAGA, the “PBM E-score” value is -0.249.

Consider ATTACGGA, for which the “PBM E-score” value is -0.0323.

For the sequence AGGATCTA, the “PBM E-score” value is -0.316.

For GGTCTCCA, the “PBM E-score” value was determined as 0.0322.

On to GAGTCTTA, for which the “PBM E-score” value was 0.189.

As to AATTACGA, the “PBM E-score” value stood at 0.0693.

As to CCTTGACG, the “PBM E-score” value was -0.359.

Regarding AGGTGGCC, the “PBM E-score” value was -0.139.

Turning to CACAAGGG, the “PBM E-score” value is -0.168.

Regarding ACACAGGT, the “PBM E-score” value worked out at 0.154.

For AGTGGGAC, the “PBM E-score” value is 0.0716.

Regarding ATAAGTAG, the “PBM E-score” value is -0.0715.

Regarding ATGCGAAA, the “PBM E-score” value was determined as 0.0354.

On to CTTATCTA, for which the “PBM E-score” value is -0.0638.

For the sequence CCTTCCAG, the “PBM E-score” value was -0.164.

Take GGCCCGCA: the “PBM E-score” value was found to be 0.0404.

As to AGATGCCA, the “PBM E-score” value is -0.0804.

Turning to AATGAAGA, the “PBM E-score” value worked out at 0.192.

As to AGAGCGTG, the “PBM E-score” value is 0.0126.

On to CCATGACC, for which the “PBM E-score” value is 0.11.

As to AGCCGCGC, the “PBM E-score” value was determined as 0.103.

On to CCTAGTTC, for which the “PBM E-score” value is -0.103.

For the sequence CAATGCGG, the “PBM E-score” value came to 0.109.

As for AAGTATAG, the “PBM E-score” value was -0.211.

Take CACTAGGG: the “PBM E-score” value came to 0.0804.

For GGACACAC, the “PBM E-score” value worked out at 0.198.

In the case of AGTACAAC, the “PBM E-score” value is 0.0207.

Turning to ACTCAGGG, the “PBM E-score” value amounted to 0.27.

In the case of CGAGCGCG, the “PBM E-score” value was determined as 0.139.

Turning to GCCACCAA, the “PBM E-score” value was determined as 0.0796.

On to CACACCAA, for which the “PBM E-score” value is 0.241.

In the case of ATGTCATA, the “PBM E-score” value amounted to 0.106.

Regarding GTTCTAGA, the “PBM E-score” value is -0.0643.

For the sequence CTGCTCCA, the “PBM E-score” value was -0.0336.

Take AGCTTTTG: the “PBM E-score” value was -0.324.

Take TCGTCGAA: the “PBM E-score” value was -0.0649.

As for ACTCGTCG, the “PBM E-score” value worked out at 0.0708.

Take TATTTTCA: the “PBM E-score” value came out at 0.0219.

With TCTGGGAA, the “PBM E-score” value was -0.135.

Turning to AGCTACCT, the “PBM E-score” value stood at 0.0163.

As to ATTGCGAG, the “PBM E-score” value was determined as 0.117.

On to AATCGACA, for which the “PBM E-score” value stood at 0.112.

Turning to GATTGCCA, the “PBM E-score” value stood at 0.0953.

As to AACCAAAT, the “PBM E-score” value came to 0.0232.

Take CTGCGTTA: the “PBM E-score” value is -0.0554.

On to GCATGACA, for which the “PBM E-score” value is -0.0701.

For CTTCGGCC, the “PBM E-score” value was -0.243.

With ATAGACAT, the “PBM E-score” value stood at 0.16.

Take GGAGACCC: the “PBM E-score” value is 0.0954.

Take GGCTGTGA: the “PBM E-score” value was 0.0773.

On to GAGCAACC, for which the “PBM E-score” value came to 0.0833.

For the sequence ATTAGACG, the “PBM E-score” value was -0.0382.
